In PubChem BioAssay AID278 (DTP/NCI, 2004):
Results filed as inconclusive are left out. Certain results were filed several times, with different values. This list holds those alone. There may be further records. Results that share an entry are repeats across runs, samples, wells, individuals or studies.

System: nude mice, A549 intrarenal xenograft, tumor weight change
Experiment: NCI In Vivo Anticancer Drug Screen. Data for tumor model A549 Human Adenocarcinoma of Lung with characteristics of Type II Alveolar Epithelial cells (intrarenal inoculation) in NU/NU BALB/C (nude) mice
Conditions: endpoint: mean tumor weight change; dose: 3.0 mg/kg/injection; schedule: Q04DX003 (ip); vehicle: saline with Tween-80; higher = larger tumour
Description: The antitumor activity of compounds was measured in mice bearing transplantable tumors. Survival or tumor size were measured and the results are expressed as the measurement made in the treated group (T) divided by the measurement made in the vehicle treated control group (C). The tumor model used in this assay is A549 Human Adenocarcinoma of Lung with characteristics of Type II Alveolar Epithelial cells (intrarenal inoculation) in NU/NU BALB/C (nude) mice

SMILES: CCCCCCCCCCCCN1C(C)=CS/C1=C\C=C\c1scc(C)[n+]1CCCCCCCCCCCC
- T/C: 57 % of control and 96 % of control
